Reference: the supplement of paper PMC10369915
The other results are listed elsewhere or left out. Cut-off read from the data, not from the text of the source: active = 3.2 or more and inactive = the rest. The signal is at background level for most entries.

B1: MPP4_Y566_V562I_YF (peptide)
chain: KIITDYFVDMK
B2: MMP8_Y36_YF (peptide)
chain: KTVQDYLEKFF
B3: MMUT_Y287_G284R (peptide)
chain: ADRLEYSRTGL
B4: MMUT_Y287_G284E (peptide)
chain: ADELEYSRTGL
B5: MNS1_Y244 (peptide)
chain: NAMRRYIEEFQ
B6: MPG_Y75_Y71H (peptide)
chain: PHRSIYFSSPK
B7: MMP9_Y241 (peptide)
chain: FEGRSYSACTT
B8: MMUT_Y364_Y364S (peptide)
chain: TEQDPSNNIVR
B9: MPP4_Y566 (peptide)
chain: KVITDYYVDMK
B10: MPL_Y591_L594W (peptide)
chain: QAQMDYRRWQP
B11: MPG_Y71_YF (peptide)
chain: TTPGPYRSIFF
B12: MPP4_Y567 (peptide)
chain: VITDYYVDMKF
B13: MMUT_Y364_N366S (peptide)
chain: TEQDPYNSIVR
B14: MMS22L_Y28 (peptide)
chain: WCKPPYFSCAV
B15: MPL_Y591 (peptide)
chain: QAQMDYRRLQP
B16: MPP4_Y566_YF (peptide)
chain: KVITDYFVDMK
B17: MMUT_Y146_H143Y (peptide)
chain: ATYRGYDSDNP
B18: MMS22L_Y28_P27L (peptide)
chain: WCKPLYFSCAV
B19: MPP4_Y567_YF (peptide)
chain: VITDFYVDMKF

Biological target: SHP2 C-SH2 domain E139D
Assay: enrichment score (SH2-bound / input frequency) (ratio); bacterial display of known human phosphotyrosine sites (pTyr-Var adds point mutants) read by sequencing; higher = stronger binding; tyrosines were phosphorylated by kinases first
Settings: peptide library: pTyr-Var
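Note: displayed peptides selected on beads carrying the immobilized SH2 domain, with library peptides lacking any tyrosine serving as negative controls.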

Enrichment score, inactive:
B1 1.26
B2 1.82
B3 0.815
B4 0.459
B5 0.511
B6 0.913
B7 0.696
B8 0.482
B9 1.19
B10 0.602
B11 0.783
B12 1.29
B13 0.552
B15 0.539
B16 1.21
B17 0.442
B19 1.47

Enrichment score, active:
B14 3.26
B18 3.34

Biological target: SHP2 C-SH2 domain wild-type
Assay: as above
Settings: peptide library: pTyr-Var

Enrichment score, inactive:
B1 1.28
B2 1.5
B3 0.225
B4 0.578
B5 0.504
B6 0.756
B7 0.856
B8 0.479
B9 0.901
B10 0.664
B11 1.65
B12 1.26
B13 0.678
B14 2.95
B15 0.653
B16 1.18
B17 0.594
B18 2.94
B19 1.61

Biological target: SHP2 N-SH2 domain L43F
Assay: as above
Settings: peptide library: pTyr-Var

Enrichment score, inactive:
B1 1.07
B2 1.71
B3 0.738
B4 0.411
B5 0.556
B6 0.86
B7 0.854
B8 0.458
B9 0.84
B10 0.707
B11 1.96
B12 1.28
B13 0.652
B14 3.15
B15 0.57
B16 1.15
B17 0.538
B19 1.62

Enrichment score, active:
B18 3.22

Biological target: SHP2 N-SH2 domain T42A
Assay: as above
Settings: peptide library: pTyr-Var

Enrichment score, inactive:
B1 1.22
B2 1.56
B3 0.645
B4 0.489
B5 0.346
B6 0.736
B7 0.823
B8 0.471
B9 0.982
B10 0.493
B11 2.08
B12 1.59
B13 0.529
B14 2.6
B15 0.458
B16 1.06
B17 0.457
B18 2.57
B19 1.34

Biological target: SHP2 N-SH2 domain T52S
Assay: as above
Settings: peptide library: pTyr-Var

Enrichment score, inactive:
B1 0.989
B2 1.96
B3 0.847
B4 0.58
B5 0.568
B6 0.713
B7 0.772
B8 0.515
B9 0.701
B10 0.444
B11 2.26
B12 1.51
B13 0.571
B14 3.05
B15 0.666
B16 1.15
B17 0.561
B18 3.19
B19 1.25

Biological target: SHP2 N-SH2 domain wild-type
Assay: as above
Settings: peptide library: pTyr-Var

Enrichment score, inactive:
B1 1.04
B2 1.45
B3 0.354
B4 0.628
B5 0.54
B6 0.81
B7 0.856
B8 0.477
B9 1.1
B10 0.588
B11 0.924
B12 1.32
B13 0.611
B14 3.02
B15 0.617
B16 1.22
B17 0.518
B19 1.78

Enrichment score, active:
B18 3.36
